Among all 230,000 compounds or so, about 3,600 (1.6%) were called active. This list was built around the results that the source calls inconclusive (neither active nor inactive); the mix of calls is not that of the screen. The call rests on the fitted dose curve; in most records, active means well fitted inhibition curve with a large enough effect (not every such curve was filed as active); inconclusive means small, poorly fitted or top-dose-only effect, or another doubt; inactive means no such curve, though single readings can be large or run the other way. Potencies beside an inconclusive call are fits to weak or partial responses and may not hold up. Some compounds were tested as several samples or in several runs, with calls that do not always agree.
Each compound was assayed against Lysine-specific demethylase 4E (Homo sapiens) (UniProt B2RXH2) (assay: qHTS Assay for Inhibitors of Human Jumonji Domain Containing 2E (JMJD2E)). Conditions: JMJD2E catalytic domain, FDH-coupled NADH fluorescence (FDH is formaldehyde dehydrogenase); series mostly up to 57.1 µM.
Chain of UniProt B2RXH2 (B2RXH2 whole entry, looked up, the tested form may be a part): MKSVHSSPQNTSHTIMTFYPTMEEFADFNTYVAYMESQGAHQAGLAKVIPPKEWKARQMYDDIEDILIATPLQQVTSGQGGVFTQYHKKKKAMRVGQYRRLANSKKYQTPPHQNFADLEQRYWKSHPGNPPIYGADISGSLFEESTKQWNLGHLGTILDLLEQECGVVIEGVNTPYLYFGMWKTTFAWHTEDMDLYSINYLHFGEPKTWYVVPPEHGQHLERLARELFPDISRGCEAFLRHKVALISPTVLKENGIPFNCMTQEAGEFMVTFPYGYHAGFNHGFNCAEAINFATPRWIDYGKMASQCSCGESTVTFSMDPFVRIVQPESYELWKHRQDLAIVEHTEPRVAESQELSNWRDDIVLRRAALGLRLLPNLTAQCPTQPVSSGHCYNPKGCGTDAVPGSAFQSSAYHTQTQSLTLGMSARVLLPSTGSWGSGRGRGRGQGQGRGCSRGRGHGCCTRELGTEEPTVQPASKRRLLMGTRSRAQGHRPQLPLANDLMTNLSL
For N#Cc1nc(-c2cccc(Cl)c2)oc1NCc1cccnc1, the Potency was inconclusive: 35.5 µM [inhibitor, partial curve]. Cc1ccc(Cn2c(CN3CCN(C(=O)c4ccco4)CC3)nc3c2c(=O)n(C)c(=O)n3C)cc1 was tested, and the Potency was “inactive”. O=C(N/N=C/c1ccc2c(c1)OCO2)c1ccc(COc2cccc3cccnc23)cc1 was tested, and the Potency was inconclusive: 25.1 µM [inhibitor, partial curve]. O=C(O)c1ccccc1-c1nc2ccccc2[nH]1 was tested, and the Potency was inconclusive: 15.8 µM [inhibitor, partial curve, poor fit]. With Cc1cccc(NC(=S)N(CCN2CCOCC2)Cc2cc3cc4c(cc3[nH]c2=O)OCCO4)c1 the Potency was inconclusive: 22.4 µM [inhibitor, partial curve]. In the case of CC(=O)N1C2(C=CC1(C)C(=O)NCc1ccccn1)CCCCC2 (stereo not drawn), the Potency was inconclusive: 35.5 µM [inhibitor, single point]. With O=S(=O)(Cc1ccc(Cl)cc1)c1ccccc1-c1nnc(-c2ccccc2)o1 the Potency was inconclusive: 12.6 µM [inhibitor, partial curve]. For COc1cc(OC)cc(-c2nnc(Nc3nc4c(F)cccc4s3)o2)c1, the Potency was inconclusive: 2 µM [inhibitor, full curve]. With COc1ccc(-c2cc(C(F)(F)F)nc(N3CCCCC3)n2)cc1OC the Potency was inconclusive: 35.5 µM [inhibitor, single point]. For Cc1ccc(S(=O)(=O)Nc2nc3ccccc3nc2Nc2cccc(S(=O)(=O)N3CCCC3)c2)cc1, the Potency was inconclusive: 14.1 µM [inhibitor, partial curve]. Cc1c(C(=O)OC(C)C)sc(NC(=O)C2CCCO2)c1C(=O)OC(C)C (stereo not drawn) was tested, and the Potency was “inactive”. COC(=O)CCCC1=CC2=C(c3ccccc3)C(=O)C(C)(OC(=O)C3CCCC3)C(=O)C2=CN1CCN1CCOCC1 (stereo not drawn) was tested, and the Potency was active: 3.16 µM. CN1Cc2ccccc2CC1CNCc1c(C(=O)N2CCCC2)nc2ccccn12 (stereo not drawn) was tested, and the Potency was “inactive”. For Nc1nc(Nc2ccccc2)nc(NCCO)c1[N+](=O)[O-], the Potency was “inactive”. In the case of O=c1[nH]c(CN2CCN(S(=O)(=O)c3ccc4ccccc4c3)CC2)nc2ccccc12, the Potency was inconclusive: 8.91 µM [inhibitor, full curve, poor fit]. For COc1ccc(S(=O)(=O)N2CCN(C(=O)COc3ccccc3)CC2)cc1, the Potency was “inactive”. With O=C(c1cc2c(=O)n3ccccc3nc2s1)N1CCc2ccccc2C1 the Potency was inconclusive: 35.5 µM [inhibitor, single point]. In the case of CCc1nnc(NC(=O)CN2CCN(C3CCCCC3)CC2)s1, the Potency was inconclusive: 28.2 µM [inhibitor, single point]. With Cc1ccnc(NS(=O)(=O)c2ccc(NC(=O)c3ccc(S(=O)(=O)N4CCCC4)cc3)cc2)n1 the Potency was “inactive”. In the case of CCOC(=O)c1c(C(F)(F)F)nc2ncccn12, the Potency was inconclusive: 31.6 µM [inhibitor, single point]. For CC(=O)Nc1ccc(C#Cc2ccc(NC(C)=O)cc2)cc1, the Potency was inconclusive: 35.5 µM [inhibitor, single point]. For O=C(O)CCCn1c(=S)[nH]c2c(sc3ccc([N+](=O)[O-])cc32)c1=O, the Potency was “inactive”. In the case of COc1ccc(OC)c(S(=O)(=O)Nc2ccc(O)c3ccccc23)c1, the Potency was inconclusive: 20 µM [inhibitor, partial curve]. With COc1cccc(-c2noc(CCC(=O)NCC3CCCO3)n2)c1 (stereo not drawn) the Potency was “inactive”. In the case of O=[N+]([O-])c1cc(Cl)cc(/C=N/NC(=S)Nc2cc(S(=O)(=O)N3CCOCC3)ccc2Cl)c1O, the Potency was active: 8.91 µM. With Cc1cccc(NC(=O)C(=O)C2C(=O)Nc3ccccc32)c1 (stereo not drawn) the Potency was inconclusive: 35.5 µM [inhibitor, single point]. Cc1ccc(NC(=S)N(CCCN(C)C)Cc2cc3cc4c(cc3[nH]c2=O)OCO4)c(C)c1 was tested, and the Potency was inconclusive: 25.1 µM [inhibitor, partial curve]. With Cc1cccc(/C=C/C(=O)c2ccc(NC3=NCCCS3)cc2)c1 the Potency was “inactive”. O=C(NCC(=O)N(c1cnc2ccccc2c1)C(C(=O)NC1CCCC1)c1ccncc1)c1ccco1 (stereo not drawn) was tested, and the Potency was inconclusive: 28.2 µM [inhibitor, single point]. With CCOc1c2ccc(C(=O)NC3CCCc4ccccc43)cc2nn1C (stereo not drawn) the Potency was inconclusive: 22.4 µM [inhibitor, partial curve]. COC(=O)[C@@H]1C[C@@H]2CC[C@@H](O)C[C@@H]2N1Cc1ccc(N2CCOCC2)cc1 was tested, and the Potency was inconclusive: 28.2 µM [inhibitor, single point]. COc1ccccc1NC(=O)c1cc2ccc(O)cc2o/c1=N\O was tested, and the Potency was inconclusive: 35.5 µM [inhibitor, single point]. With CCCc1c(O)nc(SC2CC(=O)N(c3cc(OC)ccc3OC)C2=O)[nH]c1=O (stereo not drawn) the Potency was “inactive”. Cc1onc(-c2ccccc2Cl)c1C(=O)N/N=C(\N)COc1ccc(Cl)cc1 was tested, and the Potency was inconclusive: 35.5 µM [inhibitor, single point]. With CS(=O)(=O)c1ccc2c(c1)sc1nc(=O)c(/C=C3/C=CC(=O)C(O)=C3)c(N)n12 the Potency was active: 3.16 µM. In the case of Cn1[nH]c(=O)c2ccccc2c1=O, the Potency was inconclusive: 28.2 µM [inhibitor, partial curve, poor fit]. CCOC(=O)c1nc2sc(C)c(C)c2c(=O)[nH]1 was tested, and the Potency was inconclusive: 31.6 µM [inhibitor, partial curve]. COc1ccc(Nc2nc(-c3ccccc3)nc3ccccc23)cc1S(=O)(=O)N1CCOCC1 was tested, and the Potency was inconclusive: 31.6 µM [inhibitor, partial curve]. For COC(=O)COc1cccc2c(=O)n(CC(=O)N3CCC(C)CC3)ccc12, the Potency was inconclusive: 35.5 µM [inhibitor, single point]. In the case of c1ccc(-c2noc(-c3cccc4ccccc34)n2)nc1, the Potency was inconclusive: 28.2 µM [inhibitor, partial curve]. With N=C1Sc2ccccc2C2=NCCCN12 the Potency was inconclusive: 25.1 µM [inhibitor, single point]. COc1ccc(C)cc1NC(=O)CSc1nnc(-c2cc3cccc(OC)c3o2)n1N was tested, and the Potency was inconclusive: 39.8 µM [inhibitor, single point]. With Cc1cc(C)c2c(=O)[nH]c(SCC(=O)N(C)C)nc2n1 the Potency was inconclusive: 35.5 µM [inhibitor, single point]. In the case of CCCCCc1cc(=O)oc2c(C(CCN(CC)CC)c3ccc(OC)cc3)c(OC)cc(OC)c12 (stereo not drawn), the Potency was inconclusive: 31.6 µM [inhibitor, partial curve]. Cc1ccc(/C=N/NC(=O)c2cccc(S(=O)(=O)Nc3cccc(Cl)c3)c2)o1 was tested, and the Potency was inconclusive: 31.6 µM [inhibitor, single point]. O=C(NCc1ccccc1)C(c1ccccc1)N(Cc1cccs1)C(=O)c1cnccn1 (stereo not drawn) was tested, and the Potency was “inactive”. For N#Cc1nc(-c2ccc(F)cc2)oc1NCCCn1ccnc1, the Potency was inconclusive: 28.2 µM [inhibitor, partial curve]. For CCN(CC)CCCC(C)n1c(-c2ccccc2)nc2c(NCCO)nc(C)nc21 (stereo not drawn), the Potency was inconclusive: 25.1 µM [inhibitor, partial curve]. For CN1/C(=C\C(=O)c2cccs2)C(C)(C)c2ccccc21, the Potency was inconclusive: 31.6 µM [inhibitor, single point]. For Cc1cccc2c1-c1sc(C(=O)NCCCN3CCc4ccccc4C3)cc1CO2, the Potency was inconclusive: 31.6 µM [inhibitor, partial curve]. In the case of Cc1c(Cl)cccc1NC(=O)CNC(=O)c1ccc(F)cc1, the Potency was inconclusive: 39.8 µM [inhibitor, single point]. O=c1c2ccccc2c2ccccc2c(=O)n1CC1CCCO1 (stereo not drawn) was tested, and the Potency was inconclusive: 39.8 µM [inhibitor, single point]. In the case of COc1ccc(S(=O)CC(=O)Nc2ccc(Cl)cc2Cl)cc1 (stereo not drawn), the Potency was “inactive”. Cc1ccc(O)c(CCc2ccc(O)cc2)n1 was tested, and the Potency was inconclusive: 31.6 µM [inhibitor, partial curve]. With O=[N+]([O-])c1ccc(N2CCCCCC2)c([N+](=O)[O-])c1 the Potency was “inactive”. CC(C)Nc1nnc(SCc2cc(=O)n3ccsc3n2)s1 was tested, and the Potency was inconclusive: 39.8 µM [inhibitor, single point]. For O=C(NCc1ccccc1)C(c1ccc(F)cc1)N(Cc1ccc2c(c1)OCO2)C(=O)Cn1nnc(-c2cccs2)n1 (stereo not drawn), the Potency was “inactive”. Cc1coc(C)c1C(=O)CC1(O)C(=O)N(C)c2ccc(Cl)cc21 (stereo not drawn) was tested, and the Potency was “inactive”. With COc1ccc(Oc2nc3c(C)cccn3c(=O)c2/C=C(\C#N)C(N)=O)cc1 the Potency was inconclusive: 31.6 µM [inhibitor, partial curve]. For Cc1ccc(-n2c(=O)c(C#N)cc3c(=O)n4ccccc4nc32)cc1, the Potency was inconclusive: 3.55 µM [inhibitor, full curve]. In the case of CCCCC1NC(C(=O)O)CS1 (stereo not drawn), the Potency was “inactive”. CC(=O)Nc1ccc(NC(=O)/C=C/c2ccccc2)cc1 was tested, and the Potency was “inactive”. For CCCCNc1ccccc1C(=O)OCC(=O)Nc1ccc(S(N)(=O)=O)cc1, the Potency was inconclusive: 14.1 µM [inhibitor, partial curve]. Cc1ccc(C(=O)COC(=O)c2cc(Cl)nc3ccccc23)cc1C was tested, and the Potency was inconclusive: 39.8 µM [inhibitor, single point]. O=C1CCCc2oc3c(cc(NS(=O)(=O)c4ccc5c6c(cccc46)C(=O)N5)c4ccccc43)c21 was tested, and the Potency was inconclusive: 39.8 µM [inhibitor, single point]. Cc1c(CCOC(=O)CC23CC4CC(CC(C4)C2)C3)sc[n+]1Cc1ccccc1 was tested, and the Potency was “inactive”. In the case of Cn1c(N)c(C#N)c2c(c1=S)CSC(C)(C)C2, the Potency was inconclusive: 39.8 µM [inhibitor, single point]. With Cc1nn2c(c1-c1ccccc1)NC1=C(C(=O)CCC1)C2c1ccccc1 (stereo not drawn) the Potency was inconclusive: 31.6 µM [inhibitor, partial curve].
Further: nearly all actives have a fitted effect of over 50% in size.
Potency means the concentration at half of the fitted maximal effect; tags describe the fitted curve by direction and shape.
